The subject of this experiment is MIWI (PIWIL1) piRISC loaded with L1MC piRNA (30 nt). In words: pre-steady-state target cleavage rate (min^-1); MIWI and MILI are mouse PIWI proteins and EfPiwi is from a freshwater sponge; tags in brackets are library labels; higher = faster piRNA-guided slicing of the target. Particulars: guide: L1MC piRNA 5'p-UAACUAAAUACUAUGCAAGCUGUAGGUCCU
In outline: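 In Cleave-'n-Seq, a transcribed, DNA-blocked target RNA library (0.1 nM) was combined with 1 nM active affinity-purified piRISC bearing one synthetic guide, with or without 500 nM GTSF1 partner protein. Reactions ran in HEPES–potassium acetate buffer at 33 °C for 0–8 or 0–960 min. Uncleaved targets were sequenced and normalised to depth and to weakly complementary targets, three trials were pooled, and k3 was capped at 0.0001 min^-1. The pre-steady-state cleavage rate was obtained by fitting a burst-and-steady-state model.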

The mark [1] stands for this setting: auxiliary factor: 500 nM mouse GTSF1.
The mark [2] stands for this setting: auxiliary factor: none (no GTSF1).

The source of these data is the supplement of paper PMC10338343.

± gives the standard deviation. Only a part is listed here, and it is no random draw.

As for UCCUGGAACAGCUAGCAUACUAUUUAGUUA, the “pre-steady-state target cleavage rate” value is 0.282 ± 0.027 under setting [1] and 0.0108 ± 0.0032 under setting [2].
For the sequence UCCACCUACUCCUUGCAUAGUAUUUAGAAA, the “pre-steady-state target cleavage rate” value under setting [1] was 0.281 ± 0.043 and the “pre-steady-state target cleavage rate” value under setting [2] was found to be 0.0046 ± 0.0018.
The corresponding values for UCCACCUACUAGCUUGCAUAGUAUUUAGUUA are 0.6 ± 0.026 and 0.0339 ± 0.0059.
Regarding AGGACCUACAGAUUGCAUAGUAUUUAGUUA, the “pre-steady-state target cleavage rate” value is 1.24 ± 0.091 under setting [1] and 0.0822 ± 0.017 under setting [2].
AGGACCUACAGCAUGCAUAGUAUUAAGUUA: the “pre-steady-state target cleavage rate” value worked out at 0.942 ± 0.077 under setting [1] and 0.0212 ± 0.0056 under setting [2].
As to UCCUGGAACAGCUUGCAUAGUAGUUAGUUA, the “pre-steady-state target cleavage rate” value is, setting by setting: under setting [1], 0.329 ± 0.027; under setting [2], 0.0256 ± 0.005.
For UCCUGGAACAGGUUGCAUAGUAUUUAGUUA, the “pre-steady-state target cleavage rate” value reads like this: under setting [1], 1.07 ± 0.052; under setting [2], 0.0411 ± 0.0088.
Take UCCACCUACAGCUUGGAUAGUAUUAAGUUA: the “pre-steady-state target cleavage rate” value by setting is: under setting [1], 0.505 ± 0.048; under setting [2], 0.0176 ± 0.0034.
Consider UCCACCUUGAGCUUGCAUAGUAUUUAGUAA, for which the “pre-steady-state target cleavage rate” value worked out at 0.687 ± 0.092 under setting [1] and 0.0162 ± 0.0035 under setting [2].
For the sequence UCCUGGUCAGCUUGCAUAGUAUUUAGUUA, the “pre-steady-state target cleavage rate” value reads like this: under setting [1], 1.12 ± 0.03; under setting [2], 0.0517 ± 0.01.
As to UCGAGGUACAGCUUGCAUAGUAUUUAGUAA, the “pre-steady-state target cleavage rate” value runs as follows: under setting [1], 0.88 ± 0.079; under setting [2], 0.0304 ± 0.0047.
With “UCCUCCUACAGCUUGCAUAGUAUUUAGUUC [g2:g26:cont:t1C]”, the “pre-steady-state target cleavage rate” value reads like this: under setting [1], 1.09 ± 0.039; under setting [2], 0.0511 ± 0.011.
As to UCCACGUACAGGUUGCAUAGUAUUUAGUUA, the “pre-steady-state target cleavage rate” value was 1.08 ± 0.035 under setting [1] and 0.0352 ± 0.0061 under setting [2].
Take UCCUCCUACAGCAUGCAUAGUAAUUAGUUA: the “pre-steady-state target cleavage rate” value under setting [1] was 0.719 ± 0.049 and the “pre-steady-state target cleavage rate” value under setting [2] stood at 0.00708 ± 0.0023.
The corresponding values for UCCUGGAUCACCUUGCAUAGUAUUUAGUAA are 0.336 ± 0.051 and 0.0068 ± 0.0025.
For UCCUGGAACAGCUAGCAUAGUAUUUAGAUA the same measures were 0.31 ± 0.035 and 0.00739 ± 0.0034.
With UCCUGGUACAGCUAGGAUAGUAUUUAGUUA, the “pre-steady-state target cleavage rate” value is 0.611 ± 0.084 under setting [1] and 0.00486 ± 0.002 under setting [2].
The corresponding values for UCGAGCUACAGCAUGCAUAGUAUUUAGUUA are 1.19 ± 0.054 and 0.0332 ± 0.0062.
As for UCCUGGAUGUCCUUGCAUAGUAUUGUAGUUA, the “pre-steady-state target cleavage rate” value under setting [1] worked out at 0.0352 ± 0.009 and the “pre-steady-state target cleavage rate” value under setting [2] is 0.00527 ± 0.0026.
UCCUGGUACAGCUUGCAUAUAUUUAGUUA: the “pre-steady-state target cleavage rate” value by setting is: under setting [1], 0.123 ± 0.021; under setting [2], 0.00671 ± 0.0025.
For UCCUGGAUGAGCUUGGAUAGUAUUUAGUAA, the “pre-steady-state target cleavage rate” value under setting [1] stood at 0.557 ± 0.076 and the “pre-steady-state target cleavage rate” value under setting [2] was determined as 0.0279 ± 0.0083.
Turning to AGGACCUACUCGUUGCAUAGUAUUUAGUUA, the “pre-steady-state target cleavage rate” value is, setting by setting: under setting [1], 0.934 ± 0.038; under setting [2], 0.0301 ± 0.0061.
With AGGACCUACACUUGCAUAGUAUUUAGUUA, the “pre-steady-state target cleavage rate” value reads like this: under setting [1], 1.15 ± 0.043; under setting [2], 0.0736 ± 0.016.
Regarding UCCUGGAUCAGCUUGCUUAGUAUUUAGAAA, the “pre-steady-state target cleavage rate” value is, setting by setting: under setting [1], 0.116 ± 0.021; under setting [2], 0.00482 ± 0.0028.
Turning to AGGACCUACUGCUUGCAUAGUUUUUAGUUA, the “pre-steady-state target cleavage rate” value runs as follows: under setting [1], 0.339 ± 0.017; under setting [2], 0.032 ± 0.0067.
UCGACCUACAGCUUGCAUAGUACUUUAGUUA: the “pre-steady-state target cleavage rate” value under setting [1] was determined as 0.733 ± 0.036 and the “pre-steady-state target cleavage rate” value under setting [2] turned out to be 0.0121 ± 0.0031.
UCCUGGAUCAGCUUGCUAAGUAUUUAGUUA: the “pre-steady-state target cleavage rate” value runs as follows: under setting [1], 0.0172 ± 0.0046; under setting [2], 0.0042 ± 0.0023.
In the case of UCCUGCUACAGCUUGCAUAGUAUAAAGUUA, the “pre-steady-state target cleavage rate” value was found to be 0.469 ± 0.043 under setting [1] and 0.0112 ± 0.0034 under setting [2].
Turning to UCCUCCUUCAGCUUGCAUAGUAUUAAGUUA, the “pre-steady-state target cleavage rate” value by setting is: under setting [1], 0.394 ± 0.033; under setting [2], 0.0131 ± 0.0028.
With UCCUGGAUCAGCUUGCAUAGAAUUUACUUA, the “pre-steady-state target cleavage rate” value by setting is: under setting [1], 0.0972 ± 0.025; under setting [2], 0.0151 ± 0.0061.
Take UCCUGGUAGAGCUUGCAUACUAUUUAGUUA: the “pre-steady-state target cleavage rate” value runs as follows: under setting [1], 0.121 ± 0.018; under setting [2], 0.0227 ± 0.006.
For UCCUGGUACAGCUUGCAUUGUAAUUAGUUA, the “pre-steady-state target cleavage rate” value came out at 0.158 ± 0.021 under setting [1] and 0.00769 ± 0.0027 under setting [2].
The corresponding values for UCCUCGUACUGCUUGCAUAGUAUUUAGUUA are 1.18 ± 0.057 and 0.0522 ± 0.0088.
On to UCCUGGUACAGCUUGCAUAGUAAAAAGUUA, for which the “pre-steady-state target cleavage rate” value was 0.191 ± 0.041 under setting [1] and 0.00294 ± 0.0022 under setting [2].
With UCCUGGUACAGCUAGCAUAGAAUUUAGUUA, the “pre-steady-state target cleavage rate” value under setting [1] was 0.489 ± 0.071 and the “pre-steady-state target cleavage rate” value under setting [2] came out at 0.00648 ± 0.0025.
Consider UCCUGGAACGGCUUGCAUAGUAUUUAGUUA, for which the “pre-steady-state target cleavage rate” value under setting [1] amounted to 0.897 ± 0.044 and the “pre-steady-state target cleavage rate” value under setting [2] is 0.0613 ± 0.012.
For UCCACCAACAGCUUGCAUAGAAUUUAGUUA, the “pre-steady-state target cleavage rate” value runs as follows: under setting [1], 0.386 ± 0.038; under setting [2], 0.0214 ± 0.0056.
With UCCUGCUACAGCUUGCAUAGUAUUUUGAUA, the “pre-steady-state target cleavage rate” value is, setting by setting: under setting [1], 0.301 ± 0.037; under setting [2], 0.00633 ± 0.0021.
AGGACGUACAGCUUGCAUAGUAUUUACAAA: the “pre-steady-state target cleavage rate” value amounted to 0.214 ± 0.049 under setting [1] and 0.00641 ± 0.0022 under setting [2].
In the case of UGGACGUACAGCUUGCAUAGUAUUUACAAA, the “pre-steady-state target cleavage rate” value is, setting by setting: under setting [1], 0.209 ± 0.031; under setting [2], 0.0087 ± 0.0028.
For UGCACCUACAGCUUGCAUAGUAUAUAGUUA the same measures were 0.828 ± 0.077 and 0.0452 ± 0.012.
Consider UCCUGGAACAGCUUGCAUAGUAAUUACUUA, for which the “pre-steady-state target cleavage rate” value is, setting by setting: under setting [1], 0.141 ± 0.025; under setting [2], 0.00891 ± 0.0019.
UCCUGGAACAGCUUGCAAAGUAUUUACUUA: the “pre-steady-state target cleavage rate” value reads like this: under setting [1], 0.351 ± 0.047; under setting [2], 0.0229 ± 0.0063.
For UCCACCUACAGCUUGCAUAGUAUUUUGUAA the same measures were 0.304 ± 0.051 and 0.0107 ± 0.0034.
As for UCGACCUACAGGUUGCAUAGUAUUUAGUAA, the “pre-steady-state target cleavage rate” value runs as follows: under setting [1], 1.09 ± 0.06; under setting [2], 0.0228 ± 0.005.
UCCACCUACAGCUUGCACAGUAUUUAGUUA: the “pre-steady-state target cleavage rate” value runs as follows: under setting [1], 0.905 ± 0.026; under setting [2], 0.043 ± 0.0077.
UCCACCUACAGCAUGCAUAGUUUUUAGUUA: the “pre-steady-state target cleavage rate” value runs as follows: under setting [1], 0.278 ± 0.023; under setting [2], 0.0116 ± 0.0021.
As for UCGUCCUACAGCUUGCAUAGUAUUUACUUA, the “pre-steady-state target cleavage rate” value under setting [1] stood at 0.294 ± 0.022 and the “pre-steady-state target cleavage rate” value under setting [2] worked out at 0.0351 ± 0.0049.
With UCCUGCUACAGCUUGCAAUGUAUUUAGUAA, the “pre-steady-state target cleavage rate” value runs as follows: under setting [1], 0.323 ± 0.034; under setting [2], 0.00418 ± 0.0024.
Take UCGACCUACAGGUUGGAUAGUAUUUAGUUA: the “pre-steady-state target cleavage rate” value under setting [1] turned out to be 1.16 ± 0.11 and the “pre-steady-state target cleavage rate” value under setting [2] stood at 0.0308 ± 0.0056.
As to AGGUCCAACAGCUUGCAUAGUAUUUAGUUA, the “pre-steady-state target cleavage rate” value turned out to be 1.5 ± 0.04 under setting [1] and 0.0907 ± 0.014 under setting [2].
In the case of UCCUGGAUCAGCUUGCAAAGUUUUUAGUUA, the “pre-steady-state target cleavage rate” value is 0.109 ± 0.013 under setting [1] and 0.0177 ± 0.0053 under setting [2].
The corresponding values for UCCACCUACAGCUAUGCAUAGUAUUUAGUUA are 0.825 ± 0.033 and 0.0244 ± 0.0053.
For UCCUGGAUGUGCUUGCAAAGUAUUUAGAAA, the “pre-steady-state target cleavage rate” value was found to be 0.0188 ± 0.0047 under setting [1] and 0.00328 ± 0.003 under setting [2].
Turning to UCCUCCUACAGCUUGCAUAGUAUUCAGUUA, the “pre-steady-state target cleavage rate” value runs as follows: under setting [1], 0.652 ± 0.048; under setting [2], 0.0195 ± 0.0043.
Turning to UCCUGCUACAGCUAGCAUAGUAUUUAGUAA, the “pre-steady-state target cleavage rate” value by setting is: under setting [1], 0.524 ± 0.038; under setting [2], 0.00466 ± 0.0021.
For UCCUCCUACAGCUUGCAUUGUAUUAAGUUA the same measures were 0.309 ± 0.026 and 0.00813 ± 0.0024.
In the case of UCCUGGAUGUGCUUGCUUACUAUUUAGUUA, the “pre-steady-state target cleavage rate” value is, setting by setting: under setting [1], 0.00515 ± 0.0042; under setting [2], 0.00374 ± 0.0017.
UCCUCCUACAGCUUGGAUUGUAUUUAGUUA: the “pre-steady-state target cleavage rate” value under setting [1] was 0.396 ± 0.032 and the “pre-steady-state target cleavage rate” value under setting [2] was 0.011 ± 0.0027.
Consider UCCUGGAACUGCUUGCAUAGUAUUUUGUUA, for which the “pre-steady-state target cleavage rate” value is, setting by setting: under setting [1], 0.334 ± 0.027; under setting [2], 0.014 ± 0.0033.
